Measurements published in the supplement of paper PMC10126150.
Values marked as one replicate rest on one cluster of the flow cell; about a third of the high ones do not repeat.

test system: ATP; test: switch fluorescence ratio, 500 uM ATP over buffer (Cy3 cluster intensity, sum of 5 cycles each) (fold (ratio)); higher = stronger signal-on switching upon ATP binding; sequences stand for … in TCGTCGGCAGCGTCAGATGTGTATAAGAGACAGTTTTTTTTTTTTTTTTTTTTTTTTT…TC; conditions: aptamer strand: ATP DNA aptamer (quencher-CACCTGGGGGAGTATTGCGGAGGAAGG + anchor), 100 nM annealed; ATP concentration: 500 uM; one replicate
Method in brief: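 Clusters carrying Cy3-labelled switching strands on a modified Illumina MiSeq flow-cell were annealed to 100 nM quencher-labelled ATP aptamer and imaged in selection buffer. They were imaged again after 15 min with 500 uM ATP at 22 °C, over five buffer/ATP cycles with NaOH stripping and re-annealing in between. For each cluster, the fluorescence ratio is the summed Cy3 intensity of the target cycles divided by that of the buffer cycles, averaged per switch-domain sequence. Clusters outside 100-1000 RFU were left out.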
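Note: ATP exposure 15 min at 22 °C before imaging.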

Sequence	switch fluorescence ratio
AGGTGCGAGA	1.01
CGTAGACTGT	1.06
CTGGCCCGGA	0.975
GGGAATGTGA	0.985
TGATAGTCTC	1.03
ACGGGGTATG	0.996
TAGCACCCGA	1.18
GATTTAAGGC	0.94
GCGGGGTTCG	0.985
TAAGCTTGAA	1
TGTAGGCGTT	1.01
ACCTGAGGGC	1.02
AAAGTTCTGC	0.97
CGATGATTTA	0.971
TCGTGGGTCT	0.967
CGGGACGTT	1.18
GCGAAGGAAC	0.998
TTTTGGCCGC	1.05
CCCCACCAGA	1.07
ATGTAAGATC	0.985
GGATACTTAA	1.05
AAACTTCG	1.1
CCTCTGATCG	1.34
CAAAAACCAA	1.11
CATTGTACGG	0.944
CTGATTGTGC	0.99

Sequence	switch fluorescence ratio
AATTGGGTT	0.959
AACACTGCCA	1.15
TTCAGTGAAG	1.02
AACATCATAG	1.05
GGTGGGACTA	0.985
GGCAACCTCA	1.13
GTTTTGAATA	0.995
AAGCCTGGA	1.06
CATCCTGCAG	3.15
TGGTTCAGAT	1.01
GCACCGGGAC	1.57
CACGGGCAAC	1.18
GACCTTACGC	1.47
GGGCAAT	1.4
AATCGTCGCG	1
CGGATATGGG	0.977
TTTAGCTAG	1.04
GCATGTTGCT	0.966
ACTCAATATG	1.06
AGTATACACT	1.02
CACTTGATCT	1.02
GGCCGATGGC	0.982
CACGGAGTGT	0.998
AATTGGGATA	1.01
GAGCATGCCA	0.984
AAACGGGACT	1.18

Sequence	switch fluorescence ratio
AGGCAAATTC	1.08
TTGGAATTTC	0.973
CCATGGTTTG	0.988
TGACGATA	1.04
GTTTGTCATC	1.03
TGTTTATAG	0.973
CATATATCTT	0.948
CGCACAATAG	5.12
ACGGATACGT	1.02
TTGAAGCTCG	1.06
AGGTATACTG	0.981
ATTTTATGTA	1.03
AGGGACTAG	1.03
GTGGGACCAA	0.965
TTGATATCA	0.958
TCTAGAGCAT	1.52
GATATAGCGG	0.953
TGCAGGGTAC	1.06
AAGACTGTCT	0.978
TAGAGTGGTT	1.07
TTGACTCATA	1.05
TATGCCGAA	0.95
GATTTTGCTG	0.977
TTAGGGTCA	1
TGCAAGATCT	1.05
ATACACTTAT	1.04

Sequence	switch fluorescence ratio
CGACAAGAAT	1.01
CGTAGGGG	0.992
CTGATGCATA	1.51
AGTGGTAGTG	0.998
CACGTTTCGA	0.972
GATTCGTTCG	0.981
CGAGATAGTA	1
AGGCTACCTT	1.08
CAGATGAAA	1.01
ACGGAAGGTA	1.06
ATCGTTACG	0.945
CTAGAGCGCA	1.03
CCACCTGTAT	1.07
TATGCGGTG	0.989
TGACGGTTCA	1.14
TACAGTTTTG	0.982
TCAGATTTTG	1
GACTGCGTGC	1.12
TACTATCATC	1.03
GCTACGAGCC	1.28
GGTGATCGTC	1.03
CGCGTTCGGG	0.993
CTATTGAGAC	1.04
TTGGGGTGTA	1
AACGCGTATC	1.04
TCCAACCTGT	1.04

Sequence	switch fluorescence ratio
TATCAGCGTA	0.954
TTCAGTCAAA	0.977
GCTGGACCCC	1.06
CGTTAATGTA	1
AACAGCGGTA	1.05
GGCAGTAGG	0.984
CACTGAGTT	1.07
GCTTCAACCG	1.63
GACATGGTAT	1.02
AATTTTCGGT	0.99
GTACTTGGAA	1
CAAGCTGACG	1.03
TAGGTAGGCG	1.01
AGAACGTTTC	0.985
TAGGTGTACT	1.04
TTTCGCTGGG	1.15
AAATGAGTAT	0.973
CGAATGTTCC	1.03
CAACTAGTG	1.05
GATCTGGGGA	1.03
TTCGGGGCT	0.992
ATTGATCGGA	0.979
CTTGCGTGAT	1.05
GAGGTTCC	1.02
AATTTATTCT	1.01
AGGCAGCGAG	0.972

Sequence	switch fluorescence ratio
TACTTGTTGA	0.957
TAAAGGCG	1.03
TGTAATTTCA	0.998
GAATCGCTCC	1.16
GTATGTATGG	1.01
TACGGGGTTC	0.958
AGTTAGACAC	1.04
GGGACAAGGG	1.02
GCTGGGTCCT	1.06
ACAGCGCACG	1.07
ATCAGAGGGA	1.04
ACACCTGGCA	1.11
AAAAATGATC	0.97
TTAAACTAAG	1.01
TCATAGTAAG	1.01
TGAAACCATT	1
TTCTTAAAAT	0.981
TACTTAACAA	1.15
ATGGAACCG	1.08
AGGTATGGGA	1.01
AACGCCGGGT	1.02
GGTGCAATAA	3.71
CTGCAGTGCT	1.99
TCCAGTAGCA	1.3
TGCATGACTA	0.972
ATTACGTTGT	0.998

Sequence	switch fluorescence ratio
GTCCTATTTT	0.982
GTCAGTATAC	1.5
CTAACCTAT	0.99
GCAATTGTAG	1.01
GAACCGCCGG	1.02
GGGTGACTAC	1.05
CCTCTATATA	2.09
TCTGTTAGGC	1.12
TACCGGGGAT	0.949
AATATAAACT	1.05
GAGGTACCCT	1.09
GATTGGCATT	0.969
AGGGATTCGT	1
AAGCTTCAAC	1.07
ATCGGAGCGA	1.84
ACGTGATTAC	2.24
CTGTTATAAT	0.97
ATCACTTTGC	1.07
TGGTTGGCTT	0.986
TCAACCCGCG	1.04
TGTAATTTT	1.04
GCGTTGTCCG	1.15
TTGACGGACT	1.11
CAAGCTTTG	1.01
CTAAGAATAC	1.84
TGTGGACTTA	0.953

Sequence	switch fluorescence ratio
TTATATTAAT	0.986
GGGGAAGCCC	0.984
CTAGTCGATA	1.01
TTGACTGAGG	0.99
ACTTTTGGAT	1.01
GGATGACGAT	0.901
AACAGAAAA	0.948
ATTGCACTTA	1.03
TCAAGGGAG	1.01
TGCCCTCTTC	1.02
CGCTGGAGTG	0.991
TACGGACAC	1.42
TTGTTTGCAG	0.959
TGAGACGGGG	0.869
ATTACAGGAG	1.06
GTAAAATTAT	1.02
CTCAGATCGC	1.1
TACGTTGCTC	1.08
CATTGGGGAA	0.99
